Data taken from article PMC12820563, “FoxP3 forms a head-to-head dimer in vivo and stabilizes its multimerization on adjacent microsatellites”.
This is one part of the list.

Target: T1, MBP-FoxP1dN (Mus musculus, UniProt P58462 326-579)
T1 sequence: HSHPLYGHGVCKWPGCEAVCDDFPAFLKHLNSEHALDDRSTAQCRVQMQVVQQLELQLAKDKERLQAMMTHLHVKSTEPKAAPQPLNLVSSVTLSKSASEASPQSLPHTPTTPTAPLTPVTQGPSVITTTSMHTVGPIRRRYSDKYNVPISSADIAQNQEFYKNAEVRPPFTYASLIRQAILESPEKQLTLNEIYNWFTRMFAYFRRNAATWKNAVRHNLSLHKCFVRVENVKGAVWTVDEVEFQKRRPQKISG
Test: PD-seq (MBP pull-down with sequencing); 20 mM Tris-HCl pH 7.5, 100 mM NaCl, 1.5 mM MgCl2, 0.4 uM protein, 0.1 uM dsDNA library, 30 min, room temperature, amylose pull-down; high values mean tight binding
Conditions: protein: recombinant; tags: His6-MBP; chain copies: 2; dsDNA, one strand shown
Procedure, shortened: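 His6-MBP-tagged mouse FoxP3 or FoxP1 fragment lacking the N-terminus, expressed in E. coli, was mixed at 0.4 µM with 0.1 µM Klenow-filled double-stranded degenerate DNA library. Incubation was 30 min at room temperature in Tris pH 7.5 buffer with NaCl and MgCl2. Complexes were caught on amylose resin and washed three times; DNA was released with proteinase K, PCR-barcoded and Illumina-sequenced. Binding is reads-per-million enrichment, pull-down over input, with replicates pooled.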

Going from “GATGATTGTTCTCCCAGCTGATGAATTCGTCCGGTCGAGTAAACAAATTTTCCTAATCTTTCTGTTCAAGCGCCATCTAC” to “GATGATTGTTCTCCCAGCTGATGAATTTTATCCGTCGAGTAAACAAATTTTCCTAATCTTTCTGTTCAAGCGCCATCTAC”, the binding signal rises from 0.701 RPM ratio (pull-down/input) to 0.86 RPM ratio (pull-down/input).

Compared with “GATGATTGTTCTCCCAGCTGATGAATTCATCTCATCGAGTAAACAAATTTTCCTAATCTTTCTGTTCAAGCGCCATCTAC”, “GATGATTGTTCTCCCAGCTGATGAATTTGATCTTTCGAGTAAACAAATTTTCCTAATCTTTCTGTTCAAGCGCCATCTAC” is lower in binding signal: 0.859 RPM ratio (pull-down/input) for the first, 0.84 RPM ratio (pull-down/input) for the second.

Going from “GATGATTGTTCTCCCAGCTGATGAATTACACTCTTCGAGTAAACAAATTTTCCTAATCTTTCTGTTCAAGCGCCATCTAC” to “GATGATTGTTCTCCCAGCTGATGAATTATGCCTATCGAGTAAACAAATTTTCCTAATCTTTCTGTTCAAGCGCCATCTAC”, the binding signal falls from 1.25 RPM ratio (pull-down/input) to 1.04 RPM ratio (pull-down/input).

First: GATGATTGTTCTCCCAGCTGATGAATTGGTGCACTCGAGTAAACAAATTTTCCTAATCTTTCTGTTCAAGCGCCATCTAC
Second: GATGATTGTTCTCCCAGCTGATGAATTAGGCTTGTCGAGTAAACAAATTTTCCTAATCTTTCTGTTCAAGCGCCATCTAC
The binding signal of the first is higher: 0.992 RPM ratio (pull-down/input) for the first, 0.93 RPM ratio (pull-down/input) for the second.

First: GATGATTGTTCTCCCAGCTGATGAATTACAGCTATCGAGTAAACAAATTTTCCTAATCTTTCTGTTCAAGCGCCATCTAC
Second: GATGATTGTTCTCCCAGCTGATGAATTGCACGTTTCGAGTAAACAAATTTTCCTAATCTTTCTGTTCAAGCGCCATCTAC
The binding signal of the first is lower: 1.11 RPM ratio (pull-down/input) for the first, 1.23 RPM ratio (pull-down/input) for the second.

Going from “GATGATTGTTCTCCCAGCTGATGAATTATCTTAGTCGAGTAAACAAATTTTCCTAATCTTTCTGTTCAAGCGCCATCTAC” to “GATGATTGTTCTCCCAGCTGATGAATTCAGTGAGTCGAGTAAACAAATTTTCCTAATCTTTCTGTTCAAGCGCCATCTAC”, the binding signal falls from 0.964 RPM ratio (pull-down/input) to 0.862 RPM ratio (pull-down/input).

Going from “GATGATTGTTCTCCCAGCTGATGAATTTAGCACATCGAGTAAACAAATTTTCCTAATCTTTCTGTTCAAGCGCCATCTAC” to “GATGATTGTTCTCCCAGCTGATGAATTAGCCCTGTCGAGTAAACAAATTTTCCTAATCTTTCTGTTCAAGCGCCATCTAC”, the binding signal falls from 1.06 RPM ratio (pull-down/input) to 0.818 RPM ratio (pull-down/input).

Going from “GATGATTGTTCTCCCAGCTGATGAATTGATGCGGTCGAGTAAACAAATTTTCCTAATCTTTCTGTTCAAGCGCCATCTAC” to “GATGATTGTTCTCCCAGCTGATGAATTTAAGAGTTCGAGTAAACAAATTTTCCTAATCTTTCTGTTCAAGCGCCATCTAC”, the binding signal falls from 1.39 RPM ratio (pull-down/input) to 0.82 RPM ratio (pull-down/input).

Compared with “GATGATTGTTCTCCCAGCTGATGAATTCCGGCAATCGAGTAAACAAATTTTCCTAATCTTTCTGTTCAAGCGCCATCTAC”, “GATGATTGTTCTCCCAGCTGATGAATTCTATGCATCGAGTAAACAAATTTTCCTAATCTTTCTGTTCAAGCGCCATCTAC” is higher in binding signal: 0.982 RPM ratio (pull-down/input) for the first, 1.24 RPM ratio (pull-down/input) for the second.

Going from “GATGATTGTTCTCCCAGCTGATGAATTGGTGGCTTCGAGTAAACAAATTTTCCTAATCTTTCTGTTCAAGCGCCATCTAC” to “GATGATTGTTCTCCCAGCTGATGAATTAAGAATTTCGAGTAAACAAATTTTCCTAATCTTTCTGTTCAAGCGCCATCTAC”, the binding signal falls from 0.906 RPM ratio (pull-down/input) to 0.887 RPM ratio (pull-down/input).

First: GATGATTGTTCTCCCAGCTGATGAATTGAAGGAATCGAGTAAACAAATTTTCCTAATCTTTCTGTTCAAGCGCCATCTAC
Second: GATGATTGTTCTCCCAGCTGATGAATTTGTCAAGTCGAGTAAACAAATTTTCCTAATCTTTCTGTTCAAGCGCCATCTAC
The binding signal of the first is lower: 0.885 RPM ratio (pull-down/input) for the first, 0.975 RPM ratio (pull-down/input) for the second.

Going from “GATGATTGTTCTCCCAGCTGATGAATTGAGATGGTCGAGTAAACAAATTTTCCTAATCTTTCTGTTCAAGCGCCATCTAC” to “GATGATTGTTCTCCCAGCTGATGAATTCCCAAAATCGAGTAAACAAATTTTCCTAATCTTTCTGTTCAAGCGCCATCTAC”, the binding signal rises from 0.817 RPM ratio (pull-down/input) to 1.07 RPM ratio (pull-down/input).

First: GATGATTGTTCTCCCAGCTGATGAATTACCGTTGTCGAGTAAACAAATTTTCCTAATCTTTCTGTTCAAGCGCCATCTAC
Second: GATGATTGTTCTCCCAGCTGATGAATTTTATCTTTCGAGTAAACAAATTTTCCTAATCTTTCTGTTCAAGCGCCATCTAC
The binding signal of the first is higher: 1.12 RPM ratio (pull-down/input) for the first, 0.896 RPM ratio (pull-down/input) for the second.

Going from “GATGATTGTTCTCCCAGCTGATGAATTTGGACTGTCGAGTAAACAAATTTTCCTAATCTTTCTGTTCAAGCGCCATCTAC” to “GATGATTGTTCTCCCAGCTGATGAATTTACGGCGTCGAGTAAACAAATTTTCCTAATCTTTCTGTTCAAGCGCCATCTAC”, the binding signal rises from 0.834 RPM ratio (pull-down/input) to 1.02 RPM ratio (pull-down/input).

Going from “GATGATTGTTCTCCCAGCTGATGAATTGTCCGCATCGAGTAAACAAATTTTCCTAATCTTTCTGTTCAAGCGCCATCTAC” to “GATGATTGTTCTCCCAGCTGATGAATTGAGGCCGTCGAGTAAACAAATTTTCCTAATCTTTCTGTTCAAGCGCCATCTAC”, the binding signal falls from 1.15 RPM ratio (pull-down/input) to 0.854 RPM ratio (pull-down/input).

For “GATGATTGTTCTCCCAGCTGATGAATTCTCTTGGTCGAGTAAACAAATTTTCCTAATCTTTCTGTTCAAGCGCCATCTAC”, the binding signal was 0.807 RPM ratio (pull-down/input).
